Data: PubChem BioAssay AID624296 (National Center for Advancing Translational Sciences (NCATS), 2012)
Out of some 350,000 compounds screened, about 9,900 (2.8%) were called active. Inconclusive results, whose numbers are uncertain, are shown with a selection of clear calls. The call rests on the fitted dose curve; in most records, active means well fitted activation curve with a large enough effect; inconclusive means small, poorly fitted or top-dose-only effect; inactive means no such curve, though single readings can be large or run the other way. Potencies of inconclusive entries are left out as doubtful fits.
Potency means the concentration at half of the fitted maximal effect; tags describe the fitted curve by direction and shape.

Assay: A quantitative high throughput screen for small molecules that induce DNA re-replication in MCF 10a normal breast cells. Further: nearly all actives have a fitted effect of over 50% in size. On activity, positive = re-replication: % of control where 0% means no effect.
Settings: MCF 10A DNA re-replication, Hoechst nuclear intensity, 48 h; activity, positive = re-replication: at 46.1 µM (top of the series)
For C[C@@H]1C(c2ccc(F)cc2)=NN(c2ccc(Br)cc2)[C@H]1C(=O)N1CCOC1=O, the Potency was inconclusive [activator, single point].
For N#C/C(=C\c1ccncc1)c1nc2ccccc2[nH]1, the Potency was inconclusive [activator, single point].
In the case of O=C1CC(c2ccco2)CC2=C1C1c3ccccc3C(=O)N1c1ccccc1N2 (stereo not drawn), the Potency is reported as inconclusive [activator, single point].
For Cc1ccc2nc(N3CCN(C(=O)CCC(=O)O)CC3)nc(-c3ccccc3)c2c1, the Potency was active: 20.6 µM.
With CCCN(CCC)CCNC(=O)CCC(=O)Nc1ccc2nc(N3CCOCC3)cc(C)c2c1 the “activity, positive = re-replication” value was inactive: -22.6%.
With COC(=O)c1cn(NC(=O)Cc2ccccc2Br)c(=O)c2ccccc12 the “activity, positive = re-replication” value was inactive: -1.82%.
For O=C(Cn1cc(C(F)(F)F)ccc1=O)NCCc1ccc(Cl)cc1Cl, the “activity, positive = re-replication” value was inactive: -5.58%.
With CCn1c(=S)sc2c(=O)n(-c3ccccc3)c(=S)[nH]c21 the Potency was inconclusive [activator, single point].
In the case of C#Cc1ccc([C@H]2C=C(C(=O)N3CCN(Cc4ccccc4)CC3)O[C@@H](OCc3ccc(CO)cc3)C2)cc1, the Potency is reported as inconclusive [activator, single point].
With O=C(Nc1ccon1)Nc1ccccc1C(F)(F)F the “activity, positive = re-replication” value was inactive: 2.73%.
In the case of CC1CCCCN1Cc1c(O)ccc2c(=O)c(-c3ccccc3)coc12 (stereo not drawn), the Potency is reported as inconclusive [activator, single point].
With C#CCN(C(=O)c1cc(COc2ccc(C)c(C)c2)on1)C1CCCCC1 the Potency was inconclusive [activator, partial curve, poor fit].
With CN([C@@H](Cc1ccc(OS(=O)(=O)c2cccc3cnccc23)cc1)C(=O)N1CCN(c2ccccc2)CC1)S(=O)(=O)c1cccc2cnccc12 the “activity, positive = re-replication” value was inactive: -22.4%.
For Cc1cc(OCc2cc(C(=O)N3CCN(C)C(=O)[C@@H]3C)no2)cc(C)c1Cl, the Potency was inconclusive [activator, partial curve, poor fit].
For COc1ccc(S(=O)(=O)Nc2c(NC3CCCCC3)c3ccccc3oc2=O)cc1OC, the “activity, positive = re-replication” value was inactive: -7.21%.
For O=C(O)Cc1c(O)ccc2ccccc12, the “activity, positive = re-replication” value was inactive: -2.49%.
In the case of C/C(=N\NC(=S)Nc1ccccc1C)c1cc2ccccc2o1, the Potency is reported as inconclusive [activator, single point].
With O=C(O)c1ccc(-c2nc3ccccc3[nH]2)cc1 the “activity, positive = re-replication” value was inactive: 10.7%.
For COc1ccc(Cl)cc1C(=O)NC(=S)Nc1ccccc1N1CCOCC1, the “activity, positive = re-replication” value was inactive: 10.9%.
With CCCn1nc(C(=O)Nc2ccc(N3CCOCC3)cc2)c2ccccc2c1=O the “activity, positive = re-replication” value was inactive: 1.41%.
In the case of Cc1ccc(SCCC(=O)OCC(=O)Nc2ccc(C(N)=O)cc2)cc1, the “activity, positive = re-replication” value is reported as inactive: -5.29%.
For CC(C)OC(=O)Nc1ccc2c(c1)N(C(=O)N1CCN(C)CC1)c1ccccc1CC2, the Potency was inconclusive [activator, single point].
With O=C(NCc1ccccc1)C(c1ccco1)N(C(=O)c1csnn1)c1ccccc1 (stereo not drawn) the “activity, positive = re-replication” value was inactive: -26%.
In the case of CC(=O)Nc1cc(NC(C)=O)cc(C(=O)NC(C)(C)C)c1, the “activity, positive = re-replication” value is reported as inactive: 1.57%.
With CCN1CCN(CCCOc2ccccc2-c2ccccc2)CC1 the Potency was inconclusive [activator, full curve].
In the case of O=C(Nc1nnc(S(=O)(=O)N2CCCC2)s1)c1ccccc1F, the “activity, positive = re-replication” value is reported as inactive: -1.48%.
In the case of O=C(CSc1ccc(-c2ccncc2)nn1)c1ccc(Cl)cc1, the Potency is reported as inconclusive [activator, full curve, poor fit].
For CCOc1ccc(C(C)=O)cc1COC(=O)c1ccccc1C(=O)N(C)Cc1ccccc1, the Potency was inconclusive [activator, partial curve, poor fit].
For CCN(CC)c1ccc(S(=O)(=O)N2CCCCC2)cc1NC(=O)CSCc1c(C)noc1C, the “activity, positive = re-replication” value was inactive: 29%.
For O=C1c2ccccc2NC(c2ccc(-c3ccc(Br)cc3)o2)N1O (stereo not drawn), the Potency was inconclusive [activator, single point].
With C=CCNc1oc(-c2cccc(F)c2)nc1C#N the “activity, positive = re-replication” value was inactive: -54.6%.
With CCCC[C@@H]1CNC(=S)N1CCc1cccc(F)c1 the “activity, positive = re-replication” value was inactive: 0.844%.
With CC(=O)N1c2c(cc(Br)cc2S(=O)(=O)N2CCN(c3ccccc3F)CC2)CC1C (stereo not drawn) the Potency was inconclusive [activator, full curve, poor fit].
With COc1ccc(NS(=O)(=O)c2cc([N+](=O)[O-])ccc2N/N=C/c2c(C)[nH]c3ccccc23)cc1 the Potency was active: 9.2 µM.
For O=C(Nc1cccc2ncccc12)C12CC3CC(CC(C3)C1)C2, the Potency was inconclusive [activator, partial curve, poor fit].
In the case of O/C=c1\ccc2cccc3nc(C(F)(F)F)nc1c23, the Potency is reported as active: 20.6 µM.
With Cc1nn(CCC(=O)N2CCN(S(=O)(=O)c3ccc(Cl)cc3)CC2)c(C)c1C the “activity, positive = re-replication” value was inactive: 0.468%.
For CC(C)S(=O)(=O)N1CCN(c2ccnc3cc(Cl)ccc23)CC1, the Potency was inconclusive [activator, single point].
